Results as given in PubChem BioAssay AID686978 (National Center for Advancing Translational Sciences (NCATS), 2013).
In all, about 420,000 compounds went through this assay and about 64,000 (15%) were called active. Inconclusive results, whose numbers are uncertain, are shown with a selection of clear calls. The call rests on the fitted dose curve; in most records, active means well fitted inhibition curve with a large enough effect; inconclusive means small, poorly fitted or top-dose-only effect; inactive means flat fitted curve, though single readings scatter. Potencies of inconclusive entries are left out as doubtful fits.

Assay: qHTS for Inhibitors of human tyrosyl-DNA phosphodiesterase 1 (TDP1): qHTS in cells in absence of CPT; further: nearly all actives have a fitted effect of over 55% in size
Conditions: DT40 Tdp1-/- hTDP1 cells, no CPT, ATP luminescence, 48 h; activity change, negative = growth inhibition: at 46.2 µM (top of the series) unless noted
Procedure, shortened: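 Seeded 400 DT40-hTDP1 cells/well (vehicle DMSO, no 20 nM CPT); pinned compounds; ≥48 hr at 37 °C; CellTiter-Glo luminescence as viability measure.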
On the % scale 0 is the no-effect control and ±100 the full control effect; potency means the concentration at half of the fitted maximal effect; tags describe the fitted curve by direction and shape.

SMILES | Potency | activity change, negative = growth inhibition
CC(=NC1CCN(Cc2ccccc2)CC1)c1c(O)[nH]c(=O)[nH]c1=O | inactive | 
CCCCNC(=O)c1nc(-c2cnc(C)cn2)oc1-c1ccc(Cl)cc1 | inconclusive [inhibitor, single point] | 
NC(=O)CS(=O)(=O)c1nc2ccccc2n1Cc1ccccn1 | inactive | 
Cc1ccc(C)c(S(=O)(=O)N2CCN(C(=O)CCC(=O)NCc3ccc(Cl)cc3Cl)CC2)c1 | inconclusive [inhibitor, single point] | 
Cc1ccc(S(=O)(=O)N2CCCCC2C(=O)NCc2ccco2)cc1 (stereo not drawn) | inconclusive [inhibitor, partial curve] | 
CCCN1CCC(=O)N([C@H](CN=[N+]=[N-])Cc2ccccc2)CC1 |  | inconclusive: -30.6% [inhibitor]
CCN(C(=O)CN1C(=O)COc2ccc(S(=O)(=O)N3CCCCCC3)cc21)c1cccc(C)c1 | inconclusive [inhibitor, single point] | 
O=c1cc(-c2ccc(Cl)cc2)oc(=O)[nH]1 | inactive | 
CC(NC(=O)C(NS(=O)(=O)c1cccc2nsnc12)C(C)C)c1ccccc1 (stereo not drawn) | inactive | 
COc1ccccc1-c1cccc([C@@H]2C[C@H]3[C@@H](CN2)CON3C)c1 | inactive | 
COc1cccc(CNS(=O)(=O)c2ccc3c(c2)N(C(C)=O)CCS3)c1 | inconclusive [inhibitor, single point] | 
Cc1ncsc1CCC(=O)N1CCCC(Nc2ccc(F)c(F)c2)C1 (stereo not drawn) |  | inconclusive: -34.5% [inhibitor]
O=C1/C(=C/c2cccnc2)SC(=S)N1c1ccc(O)cc1 |  | inconclusive: -33.3% [inhibitor]
O=C(NNC(=O)C12CC3CC(CC(O)(C3)C1)C2)c1ccccc1O | inconclusive [inhibitor, single point] | 
COc1cccc(OC)c1C(=O)N1CCN(Cc2cccnc2)CC1 | inactive | 
COc1ccc(OC)c(NC(=O)CSc2nnc3ccc(-c4ccccn4)nn23)c1 |  | inconclusive: -30.3% [inhibitor]
CCOc1ccccc1C1C(C#N)=C(N)Oc2cc(N)ccc21 (stereo not drawn) | inactive | 
Clc1cccc(-n2cc(-c3ccccc3)c3c(N4CCCCC4)ncnc32)c1 | active: 23.1 µM | 
O=C(COc1ccc([N+](=O)[O-])cc1)NNC(=O)C1COc2ccccc2O1 (stereo not drawn) | inactive | 
CC(C)(C)n1ncc2c(=O)n(CC(=O)N3CCCc4ccccc43)cnc21 | inconclusive [inhibitor, partial curve] | 
COc1cc(C(O)c2nc3ccccc3n2C(C)C)cc(OC)c1OC (stereo not drawn) | inconclusive [inhibitor, single point] | 
CCN1C(C(=O)c2ccccc2)=C(OC(=O)c2ccc(OC)cc2)c2ccccc2S1(=O)=O | active: 6.51 µM | 
CCCCCCCCCCCCCCCCCCCCCCO | inactive | 
COc1ccc(C2=Nn3c(nnc3-c3ccncc3)SC2)cc1 | inconclusive [inhibitor, partial curve] | 
CC(C)[C@@H](CO)N(C)S(=O)(=O)c1ccccc1Br | inactive | 

SMILES | Potency | activity change, negative = growth inhibition
COC(=O)c1ccc(Nc2cc(C)nc(-c3ccccc3O)n2)cc1 | inconclusive [inhibitor, partial curve] | 
CN(C)/C=C/C(=O)c1cnc(-c2ccccn2)s1 | inactive | 
CC(C)N(C(=O)[C@H]1C[C@H](CC(=O)NCc2ccco2)C(=O)N2CCc3c([nH]c4ccc(Cl)cc34)[C@]12C)C(C)C | inconclusive [inhibitor, single point] | 
COc1ccc(NC(=O)c2cc3c(s2)CCC3)cc1S(=O)(=O)N1CCOCC1 | inactive | 
COc1ccc(CCn2c(=N)c(C(=O)NCC3CCCO3)cc3c(=O)n4ccccc4nc32)cc1 (stereo not drawn) | active: 8.2 µM | 
O=C1N(C2CCCC2)C[C@@H]2C[C@@H](c3cn[nH]c3-c3ccc(Cl)cc3)N3CCC[C@@]123 | inconclusive [inhibitor, single point] | 
CCNC(=S)N(CCc1ccc(S(N)(=O)=O)cc1)C1CC(=O)N(c2ccccc2)C1=O (stereo not drawn) | inconclusive [inhibitor, partial curve] | 
CCN1C[C@@H]2[C@@H]3C(=O)N(C)C(=O)[C@@H]3[C@](Cc3ccccc3)(C1=O)N2C(=O)c1ccc(Cl)c(Cl)c1 | inconclusive [inhibitor, single point] | 
COc1ccc(C2=CC(=O)C[C@H](c3ccc(F)cc3)C2)c(F)c1F | inconclusive [inhibitor, partial curve] | 
COc1cccc(CNc2nc3cc(-c4ccccc4)sc3c(=O)n2C)c1 | inconclusive [inhibitor, single point] | 
CCN1CCN(c2ncnc3c2c(-c2ccccc2)cn3-c2ccc(F)cc2)CC1 | inconclusive [inhibitor, single point] | 
CCNc1nc(Oc2ccc(C(=O)OC)cc2)nc(N(C)C)n1 | inconclusive [inhibitor, partial curve] | 
Cc1cc(C)c2nc(C)cc(Nc3ccc(C(=O)NCCO)cc3)c2c1 | inconclusive [inhibitor, single point] | 
O=C1c2cccnc2C(=O)N1CO | inactive | 
CCc1ccc(NC(=O)CCNS(=O)(=O)c2cccs2)cc1 | inactive | 
COCCCn1cc(C(=O)c2cc(OC)ccc2OCC(=O)N2CCCCC2C)cc(C#N)c1=O (stereo not drawn) | inactive | 
CCc1ccc([C@@H]2CC=C(C(=O)O)[C@H](c3ccc(C(C)(C)C)cc3)N2S(=O)(=O)c2ccc(C)cc2)cc1 | inconclusive [inhibitor, single point] | 
O=C(COc1ccc(-c2ccccc2)cc1)Nc1cccnc1 | active: 20.6 µM | 
CC(=O)Nc1ccc(C(=O)N2CCCCC2c2cc(C(=O)NCc3cccnc3)no2)cc1 (stereo not drawn) | inactive | 
Cc1nnc(NC(=O)CSc2nc(CC(C)C)nc3c2c(=O)n(C)c(=O)n3C)s1 | active: 10.3 µM | 
Cc1cc(Br)ccc1NC(=O)CNC(=O)CSc1nccn1C | inactive | 
O=C1C2C3CC4C5C3C1C5C1(SCCS1)C42 (stereo not drawn) | inactive | 
CCOC(=O)c1ccc(S(=O)(=O)N2CCN(C(=O)CSc3nc4ccccc4o3)CC2)cc1 | active: 11.6 µM | 
NC(=S)NNC(=O)c1cc(C(F)(F)F)cc(C(F)(F)F)c1 | inactive | 
COc1ccc(CN2CCCC(CO)(Cc3cccc(Cl)c3)C2)cc1OC (stereo not drawn) | active: 20.6 µM | 

SMILES | Potency | activity change, negative = growth inhibition
CCOC(=O)COc1ccc(S(=O)(=O)N2CCN(c3ccccc3F)CC2)cc1 | inactive | 
NS(=O)(=O)c1ccc(CCNC(=O)NC2(C(F)(F)F)Oc3ccccc3O2)cc1 | inconclusive [inhibitor, single point] | 
CCc1cccc(C)c1NC(=O)Cn1cc2c(n1)CCCC2 | inconclusive [inhibitor, single point] | 
CC1(C)CC(=O)C=C(NC2CCCC(O)C2)C1 (stereo not drawn) | inactive | 
COc1cc(CC(=O)N(c2ccccc2)c2nc(C)cs2)cc(OC)c1OC | inconclusive [inhibitor, partial curve] | 
Cc1cccc(NC(=S)NNc2ncc(C(F)(F)F)cc2Cl)c1 | inconclusive [inhibitor, single point] | 
O=C(Cc1ccc(-n2c(=O)c3sccc3n(Cc3ccc(F)cc3)c2=O)cc1)NCc1ccco1 | active: 18.4 µM | 
Cn1c(=O)c2c(-c3ccc(Br)cc3)n(CCc3ccccc3)cc2n(C)c1=O | inconclusive [inhibitor, single point] | 
CN(C)c1ccc(N2C(=O)CC(Sc3ccccc3C(=O)O)C2=O)cc1 (stereo not drawn) | inconclusive [inhibitor, single point] | 
COc1ccccc1NC(=O)NCC(=O)Nc1c(C)cccc1C | inactive | 
COc1ccc(OC)c(S(=O)(=O)N2CCCc3ccccc32)c1 | inconclusive [inhibitor, partial curve] | 
CC(C)NC(=O)N1c2ccccc2Sc2ccccc21 | inconclusive [inhibitor, single point] | 
CCCCOCCCNCc1cccn1CCN1CCOCC1 | inconclusive [inhibitor, partial curve, poor fit] | 
COc1ccccc1N1CCN(C(=O)c2cc(=O)c3cc(C)cc(C)c3o2)CC1 | active: 0.0082 µM | 
CCCN1CCN(CCCNC(=S)Nc2ccc3nc(N4CCN(CC)CC4)cc(C)c3c2)CC1 | inconclusive [inhibitor, partial curve] | 
CC(C)(CO)Nc1nc(N2CCCC2)nc(N2CCCC2)n1 | active: 20.6 µM | 
Nc1ccccc1SCC(=O)Nc1ccc2c(c1)OCO2 | inactive | 
COc1ccc(-c2nnn(CC(=O)N(Cc3cccs3)C(C)C(=O)NC3CCCC3)n2)cc1OC (stereo not drawn) | inconclusive [inhibitor, single point] | 
Cc1cc2c3c([nH]c2cc1S(=O)(=O)N1CCC2(CC1)OCCO2)CC(C)(C)CC3=O | inactive | 
Cc1cc(C)c(C)c(S(=O)(=O)N2CCN(CC(=O)c3c(N)n(Cc4ccccc4)c(=O)n(C)c3=O)CC2)c1C | inconclusive [inhibitor, single point] | 
N#C/C(=C\c1ccc(N2CCOCC2)o1)C(=O)NC1CCCCC1 | inconclusive [inhibitor, single point] | 
CCC1(CC)C(=O)N(c2ccccc2)C(=N)N(c2ccccc2)C1=O | inactive | 
Cc1cc(C)c2oc(C(=O)Nc3ccc(S(=O)(=O)N4CCCC(C)C4)cc3)cc(=O)c2c1 (stereo not drawn) | inconclusive [inhibitor, single point] | 
